The labels stand for the following.
B1: PhoQ; a variant is named by its letters at X, in order, P23837 (parent)
chain: MKKLLRLFFPLSLRVRFLLATAAVVLVLSLAYGMVALIGYSVSFDKTTFRLLRGESNLFYTLAKWENNKLHVELPENIDKQSPTMTLIYDENGQLLWAQRDVPWLMKMIQPDWLKSNGFHEIEADVNDTSLLLSGDHSIQQQLQEVREDDDDAEMTHSVAVNVYPATSRMPKLTIVVVDTIPVELKSSYMVWSWFIYVLSANLLLVIPLLWVAAWWSLRPIEALAKEVRELEEHNRELLNPATTRELTSLVRNLNRLLKSERERYDKYRTTLTDLTHSLKTPLXXLQXXLRSLRSEKMSVSDAEPVMLEQISRISQQIGYYLHRASMRGGTLLSRELHPVAPLLDNLTSALNKVYQRKGVNISLDISPEISFVGEQNDFVEVMGNVLDNACKYCLEFVEISARQTDEHLYIVVEDDGPGIPLSKREVIFDRGQRVDTLRPGQGVGLAVAREITEQYEGKIVAGESMLGGARMEVIFGRQHSAPKDE

The other results are listed elsewhere or left out. Some results are limits rather than exact numbers.

The variants in this experiment derive from B1. Nature of the experiment: enrichment ratio after two sorts for PhoP signalling (ratio (wild type AVST 3.29)); higher = more functional. The following applies: with PhoP (E. coli).
As to VQWD, the enrichment ratio is not above 0.25.

For LECV, the enrichment ratio was 5.3.

For YHNT, the enrichment ratio was not above 0.25.

Take RQWV: the enrichment ratio was not above 0.25.

As for LWFR, the enrichment ratio was not above 0.25.

Regarding PHWR, the enrichment ratio was not above 0.25.

On to KEHG, for which the enrichment ratio is not above 0.25.

With LPNH, the enrichment ratio was not above 0.25.

Turning to KHAV, the enrichment ratio is not above 0.25.

For the variant QQYL, the enrichment ratio was not above 0.25.

In the case of KTFK, the enrichment ratio is not above 0.25.

As to GDTL, the enrichment ratio is not above 0.25.

On to LTYT, for which the enrichment ratio is not above 0.25.

Take DMGC: the enrichment ratio is not above 0.25.

Regarding YANS, the enrichment ratio is not above 0.25.

With THFT, the enrichment ratio worked out at 0.545.

Turning to FASC, the enrichment ratio was not above 0.25.

As for KIMK, the enrichment ratio is not above 0.25.

On to VMNE, for which the enrichment ratio is not above 0.25.

With TIVD, the enrichment ratio is not above 0.25.

Turning to NGSK, the enrichment ratio is not above 0.25.

As to HFAP, the enrichment ratio was not above 0.25.

Turning to GGHL, the enrichment ratio is not above 0.25.

With RFAA, the enrichment ratio was not above 0.25.

For the variant NMRQ, the enrichment ratio was not above 0.25.

Consider YNSE, for which the enrichment ratio is not above 0.25.

Consider VKHC, for which the enrichment ratio is not above 0.25.

Regarding HKRT, the enrichment ratio was not above 0.25.

For the variant YYGN, the enrichment ratio was not above 0.25.

For AVRG, the enrichment ratio is not above 0.25.

For the variant HDFN, the enrichment ratio is not above 0.25.

On to KVFQ, for which the enrichment ratio is not above 0.25.

As for NGKW, the enrichment ratio was not above 0.25.

With NQDV, the enrichment ratio was not above 0.25.

As for EYQF, the enrichment ratio is not above 0.25.

Turning to AMPK, the enrichment ratio was not above 0.25.

On to RKIR, for which the enrichment ratio is not above 0.25.

Regarding FAHW, the enrichment ratio was not above 0.25.

On to EVDF, for which the enrichment ratio was not above 0.25.

On to SHLG, for which the enrichment ratio turned out to be 10.8.

Turning to MNMH, the enrichment ratio was not above 0.25.

For VMRA, the enrichment ratio was not above 0.25.

Regarding KMMP, the enrichment ratio is not above 0.25.

As to GFHK, the enrichment ratio is not above 0.25.

In the case of YRIP, the enrichment ratio is not above 0.25.

For TSCA, the enrichment ratio came to 15.2.

FQSG: the enrichment ratio was not above 0.25.

Turning to ITDV, the enrichment ratio is not above 0.25.

As for MAVK, the enrichment ratio is not above 0.25.

On to TTVP, for which the enrichment ratio was not above 0.25.

With VCGE, the enrichment ratio is not above 0.25.

For the variant MTNC, the enrichment ratio is not above 0.25.

With PDYM, the enrichment ratio was not above 0.25.

With FTAW, the enrichment ratio was not above 0.25.

In the case of GPPK, the enrichment ratio was not above 0.25.

Consider SAYT, for which the enrichment ratio was not above 0.25.

With AHHI, the enrichment ratio is not above 0.25.

In the case of EGPF, the enrichment ratio was not above 0.25.

For ANYR, the enrichment ratio is not above 0.25.

As to TCYQ, the enrichment ratio came out at 3.33.

Consider RPVN, for which the enrichment ratio is not above 0.25.

On to DCLK, for which the enrichment ratio was not above 0.25.

NICM: the enrichment ratio is not above 0.25.

Consider YIGS, for which the enrichment ratio is not above 0.25.

Take DMHH: the enrichment ratio is not above 0.25.

Consider QARM, for which the enrichment ratio was not above 0.25.

In the case of WKSE, the enrichment ratio is not above 0.25.

With QCMP, the enrichment ratio was not above 0.25.

As for FKPN, the enrichment ratio was not above 0.25.

Take TLGF: the enrichment ratio came to 12.8.

Turning to SENC, the enrichment ratio was 10.6.

In the case of KDEC, the enrichment ratio was not above 0.25.

YHFL: the enrichment ratio was not above 0.25.

Take KCHW: the enrichment ratio was not above 0.25.

As to VNMS, the enrichment ratio was found to be 2.24.

Turning to VPYQ, the enrichment ratio is not above 0.25.

As to APTM, the enrichment ratio is not above 0.25.

WYFD: the enrichment ratio amounted to 6.78.

RDCG: the enrichment ratio was not above 0.25.

In the case of QYYT, the enrichment ratio was not above 0.25.

Consider TRSM, for which the enrichment ratio came out at 5.52.

As for KIPN, the enrichment ratio was not above 0.25.

Take EEDF: the enrichment ratio is not above 0.25.

In the case of PAHC, the enrichment ratio is not above 0.25.

Regarding FMNM, the enrichment ratio is not above 0.25.

Consider APLY, for which the enrichment ratio is not above 0.25.

On to MCIR, for which the enrichment ratio is not above 0.25.

Regarding PCTP, the enrichment ratio was not above 0.25.

As to QYVP, the enrichment ratio is not above 0.25.

Take PTMT: the enrichment ratio is not above 0.25.

Turning to FVYM, the enrichment ratio is not above 0.25.

For NKLN, the enrichment ratio was not above 0.25.

For NRWG, the enrichment ratio was not above 0.25.

Take QISK: the enrichment ratio is not above 0.25.

As to MCIE, the enrichment ratio was not above 0.25.

KHFE: the enrichment ratio was not above 0.25.

As for RPIH, the enrichment ratio is not above 0.25.

On to AMCP, for which the enrichment ratio was not above 0.25.

Turning to MPWC, the enrichment ratio is not above 0.25.

For TQWT, the enrichment ratio stood at 0.56.

With LMNP, the enrichment ratio was not above 0.25.

Turning to EDLY, the enrichment ratio is not above 0.25.

As for YPSH, the enrichment ratio is not above 0.25.

NRLY: the enrichment ratio was not above 0.25.

As for DCSE, the enrichment ratio was not above 0.25.

Take VMQR: the enrichment ratio was not above 0.25.

DCLG: the enrichment ratio is not above 0.25.

TDHH: the enrichment ratio was not above 0.25.

For the variant TPKF, the enrichment ratio was not above 0.25.

Turning to RYVT, the enrichment ratio is not above 0.25.

As to QKQL, the enrichment ratio is not above 0.25.

Regarding MGNH, the enrichment ratio is not above 0.25.

Take QKGA: the enrichment ratio is not above 0.25.

Consider VAAC, for which the enrichment ratio is not above 0.25.

On to IKWC, for which the enrichment ratio is not above 0.25.

For SYID, the enrichment ratio is not above 0.25.

As for VSGS, the enrichment ratio was not above 0.25.

As to DHTQ, the enrichment ratio is not above 0.25.

KHVA: the enrichment ratio was not above 0.25.

With FQLK, the enrichment ratio is not above 0.25.

As for ETFP, the enrichment ratio was not above 0.25.

Turning to TTGA, the enrichment ratio worked out at 12.6.

In the case of RFCK, the enrichment ratio is not above 0.25.

For the variant FGAI, the enrichment ratio came out at 1.34.

Consider DYPF, for which the enrichment ratio is not above 0.25.

For the variant MPEV, the enrichment ratio was not above 0.25.

Take FVCR: the enrichment ratio was not above 0.25.

QVHV: the enrichment ratio was not above 0.25.

On to DLPI, for which the enrichment ratio is not above 0.25.

GYAK: the enrichment ratio was not above 0.25.

Take VQNH: the enrichment ratio was not above 0.25.

As to QAHA, the enrichment ratio is not above 0.25.

Turning to VRTL, the enrichment ratio is not above 0.25.

With TPWH, the enrichment ratio was not above 0.25.

Consider SSCQ, for which the enrichment ratio was found to be 13.4.

Turning to AEIF, the enrichment ratio was determined as 18.6.

For the variant GQTM, the enrichment ratio is not above 0.25.

In the case of HHCL, the enrichment ratio is not above 0.25.

With LVKY, the enrichment ratio is not above 0.25.

For the variant EDVQ, the enrichment ratio was not above 0.25.

Regarding QPIA, the enrichment ratio is not above 0.25.

Regarding PVIQ, the enrichment ratio is not above 0.25.

Consider QNLG, for which the enrichment ratio is not above 0.25.

For the variant LPKG, the enrichment ratio is not above 0.25.

Regarding NYTL, the enrichment ratio is not above 0.25.

Regarding EWAS, the enrichment ratio was not above 0.25.

On to PDFV, for which the enrichment ratio is not above 0.25.

For the variant RVQQ, the enrichment ratio was not above 0.25.

With SDPN, the enrichment ratio is not above 0.25.

For RACF, the enrichment ratio is not above 0.25.

Turning to PDPQ, the enrichment ratio is not above 0.25.

On to GDPY, for which the enrichment ratio was not above 0.25.

On to ENCW, for which the enrichment ratio was not above 0.25.

For the origin of these results see a collection of fitness landscapes (doi:10.1126/science.1257360).
